Experimental data: the supplement of paper PMC10126150
Sequences with one replicate were seen in a single cluster, so their values are uncertain.

System: ATP
Test: switch fluorescence ratio, 500 uM ATP over buffer (Cy3 cluster intensity, sum of 5 cycles each) (fold (ratio)); higher = stronger signal-on switching upon ATP binding; sequences stand for … in TCGTCGGCAGCGTCAGATGTGTATAAGAGACAGTTTTTTTTTTTTTTTTTTTTTTTTT…TC
Conditions: aptamer strand: ATP DNA aptamer (quencher-CACCTGGGGGAGTATTGCGGAGGAAGG + anchor), 100 nM annealed; ATP concentration: 500 uM; one replicate
Procedure, shortened: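 Switching-strand clusters labelled with Cy3 on a modified Illumina MiSeq flow-cell were annealed to 100 nM quencher-labelled ATP aptamer, imaged in selection buffer, and re-imaged after 15 min with 500 uM ATP at 22 °C. This was done over five cycles with NaOH stripping and re-annealing in between. The fluorescence ratio is summed target-cycle over summed buffer-cycle Cy3 intensity per cluster, averaged per switch-domain sequence, excluding clusters outside 100-1000 RFU.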
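Also: ATP exposure 15 min at 22 °C before imaging.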

Sequence	switch fluorescence ratio
CATTCTCGTG	0.973
GCGTACGCTA	1.03
ACAGTGCTCA	1.01
TAGTTGTTT	0.977
CGGAAAGGAC	1.01
GTATTGACCG	1.02
ACGGAAAGGG	1.09
TTGGGCCACC	0.962
TTGTTTCAAC	1.07
TGCTGTGTCA	0.972
ATAAGGATGT	0.979
TAGTGTTTGA	1
ATAGCCCTCT	0.966
GGATGGTGGC	1.04
TTATGTTGCG	1.01
AGGCTACCGG	1.01
AGGGGAGGCG	1.05
ATTACTTTCC	1.75
GAGATTTGCG	0.972
ACACAGGTTC	1.1
CGATCATTAT	0.994
GCAGAAATCA	1.01
TGCCTAATGG	1.03
AAGGTATTGG	1.04
GCATGCCATC	1.04
GAAACTTTAC	1.4

Sequence	switch fluorescence ratio
AGCTGGTAGA	1.05
AAGAATGCG	1.02
GGCAGGACAG	0.952
TTCGGAGCCC	2.27
GTGTGAAGCT	1.03
GTCACCTCGC	1.12
AGAATGGACA	1.06
TCAGTTGACA	1.03
GCACTCTGAA	1.02
GTCTGCTGGG	1.02
AGCATACGCA	1.29
CGAGCAAGGT	1.89
ATTTACGCAA	5.11
TAAGGTGTTA	1.12
CCTCCCGTTA	5.98
CTCTCTTC	1.05
TTGTGTGTT	0.991
CGTAGTTAGC	1.37
TGTCTTCATT	1.03
GCTTGTTCCA	1.02
CCGTATGACC	1.13
TCAGATAAAA	0.999
CTATTTGTTC	1.06
ATTCCATCGT	0.986
AACTCTCTCC	1.15
AAGTAGTATG	0.995

Sequence	switch fluorescence ratio
CTAGCTTGAT	1
TTAAACCACT	1.05
GAGTCGGTAG	0.939
GCGAGTCGTG	0.968
AAGGTCTCTC	0.976
TAACTTTAAT	0.976
TTTGCCATAA	0.975
TAAGTATAGA	0.996
TTTGTTGTG	1.01
ACGCAGCGTT	1.08
GCTCGAAGTG	1.04
GGTCGTAATT	1.08
TTGTTATTGT	0.979
GATCGCGGTC	0.986
CAGGAGTTT	1
AGTGGACTCT	1.01
GCCCGGGTAA	1.03
CTAGAAGAAG	0.993
GGTGTAAGTT	0.967
GACAGTACAG	1.03
TAGTGGATCA	0.992
AAGTTCAATC	1.02
GTTCACACTT	0.952
ACGATGTCAT	1.04
AGTCAGTCCT	0.984
AAGAACACCG	1.04

Sequence	switch fluorescence ratio
CCTCGGGGTG	1.17
GTAGAAAGAG	0.981
CTTCCGGGGG	1.02
CACGAGGGTT	1.04
AGGACAATGT	1.07
TAACACCTG	1.04
GATTATCAGC	0.949
GTTCAGGCAG	0.986
ACGTAGAGGG	1.05
CAGGGGAGAT	1.03
CTGATTGATT	0.985
AATTCACGGG	1.12
GGGGCCAGTT	1
TCACAACTGT	0.987
AATCACATCT	1
GGATAAGTGC	0.985
GACAGGTTT	1.24
TTGTGTGAAA	0.967
GCGTGGAACG	0.982
GGGCATTG	0.988
CGCGTGTTCG	1.02
ACAGTGTTAT	0.942
CCACGCTTTG	1.07
CCTGTCTAGA	0.971
GCCAACGTAC	2.08
AAGCGTGCCA	1.03

Sequence	switch fluorescence ratio
GTGTTTGTTT	0.958
GGTAGGCTGG	0.992
CAAGACTGAG	0.999
TCCTCTCGGG	1.19
AAACCACGGC	1.17
GGGTGCCCGT	0.943
ATCTTACTGG	0.988
AGCGTCGCGG	1.05
CGGGCACACT	1.07
GCCTAAACGG	1.04
TGCGCGATGG	1.7
GCATTGGATT	1.02
GCCGGGCCA	1
CATAGGGTAT	0.951
GCAAGGCTGA	1.03
CGCCACCGAC	1.55
GGTCTCAGTG	0.992
AGTTCGTAAT	1.03
GATTAGTCAT	1.02
CGTTATGTCC	1.03
CATTATCATG	0.996
CCGGATCCTC	1.23
ACTGTCAC	1.43
TAGAATACTA	1.06
GTCCCAAGA	0.964
ACCTCAGTGC	1.52

Sequence	switch fluorescence ratio
TCCTCAGAAC	1.7
GCGTCTTAGT	1.02
AGGTAAGCTT	0.993
ACAAGTTAAC	1.03
ATTGAAGACC	1.03
TCTCCCATG	1.28
GCAGTGCTAT	1
CATTTCGATC	0.992
CGGTGTTCGT	1.03
TGTATGGAGT	0.975
AATTCCCGG	0.971
AAGTCTCTGG	1.01
TTAAGACAAG	1.02
ATGTACAAGT	1.05
AACTAGGGAT	0.978
TTACAGCTTA	1.07
GGATAACTTG	0.98
ATGCTCAGCC	1
TAAAGAGAAG	1.16
TACGCATTCG	1.12
ATCTGTTAC	1.07
AAGCCGAGGT	1.01
CATAGACTGG	0.986
TGGTGAACAA	1.01
AACTGAAGGA	0.963
AGTTGTCG	1.09

Sequence	switch fluorescence ratio
AAAATTGTAG	1.01
AAGGGATACT	1.01
CTGCAAATTG	1.09
CTATGGATCC	1.02
GCGAGAGCTT	1
TTGATGAACG	1.08
CATCGTGCGG	1.01
ATTTCTCTA	1.04
TAGGGGGCCG	0.97
TTGTGGGAGA	0.999
ATGCCAACT	1.01
GCGACGATGT	1.08
AAATTTGCGG	0.97
AATGCCACGC	1.09
GGGATCACCT	1.01
TGCGCGCCTA	0.958
GTTGTGTTAC	1.04
GAGTATGTTA	0.995
GCGCTTTATC	1.37
GGTATGAACA	0.996
AGATACTGC	1.17
GTAGGAAGAT	1.15
GGTGTGACGC	1.01
CTACGGGGCA	0.986
CGAGGTATAC	3.44
ATACCTCACC	1.67

Sequence	switch fluorescence ratio
TGGCATTAAA	0.964
TTCGGGTAGG	1.01
AGTCGGTTCC	1.04
ATGCAGTCAT	0.974
CGGTTGGTTG	0.987
CATCGGGTTG	1.02
ATGCTCAATG	0.937
GTTTGCCCAT	1
AGCGCTTCGG	0.964
GGCTTGCTGT	0.982
GATTAAGTGA	1.02
GCCTGACTTT	1.18
TTTTATTTAG	0.964
CGGGTTGCAA	1.18
TCTCTCTTTA	0.972
GTTGACCGTT	1.02
CGGGTACGGG	0.979
TGTCAGAGGT	1.01
ATTACAGGTT	1.01
